Source: US20230141962A1 (published 2023)

Assays:
Experiment in all cases: phage ELISA
[1] = target: T1, HCoV-229E Spike/S1 Protein (HCoV-229E, UniProt P15423 16-536)
T1 construct: domain: Spike/S1; also called 229E-HIS
T1 sequence: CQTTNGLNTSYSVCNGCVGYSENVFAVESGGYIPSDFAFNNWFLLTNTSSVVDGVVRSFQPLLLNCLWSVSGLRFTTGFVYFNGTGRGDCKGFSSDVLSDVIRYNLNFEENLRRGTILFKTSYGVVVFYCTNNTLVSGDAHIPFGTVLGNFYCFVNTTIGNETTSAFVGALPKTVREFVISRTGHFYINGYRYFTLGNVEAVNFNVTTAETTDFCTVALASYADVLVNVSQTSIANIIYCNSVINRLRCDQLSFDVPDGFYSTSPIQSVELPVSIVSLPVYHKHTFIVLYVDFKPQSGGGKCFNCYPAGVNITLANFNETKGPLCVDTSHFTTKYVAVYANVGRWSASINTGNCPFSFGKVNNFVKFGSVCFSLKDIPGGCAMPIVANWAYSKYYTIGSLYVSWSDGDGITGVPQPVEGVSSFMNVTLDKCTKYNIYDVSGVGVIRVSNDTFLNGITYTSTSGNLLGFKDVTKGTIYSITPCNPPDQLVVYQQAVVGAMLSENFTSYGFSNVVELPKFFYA

[2] = target: T2, HCoV-HKU1 Spike/S1 Protein (HCoV-HKU1, UniProt Q0ZME7 13-756)
T2 construct: domain: Spike/S1; also called HKU1-HIS
T2 sequence: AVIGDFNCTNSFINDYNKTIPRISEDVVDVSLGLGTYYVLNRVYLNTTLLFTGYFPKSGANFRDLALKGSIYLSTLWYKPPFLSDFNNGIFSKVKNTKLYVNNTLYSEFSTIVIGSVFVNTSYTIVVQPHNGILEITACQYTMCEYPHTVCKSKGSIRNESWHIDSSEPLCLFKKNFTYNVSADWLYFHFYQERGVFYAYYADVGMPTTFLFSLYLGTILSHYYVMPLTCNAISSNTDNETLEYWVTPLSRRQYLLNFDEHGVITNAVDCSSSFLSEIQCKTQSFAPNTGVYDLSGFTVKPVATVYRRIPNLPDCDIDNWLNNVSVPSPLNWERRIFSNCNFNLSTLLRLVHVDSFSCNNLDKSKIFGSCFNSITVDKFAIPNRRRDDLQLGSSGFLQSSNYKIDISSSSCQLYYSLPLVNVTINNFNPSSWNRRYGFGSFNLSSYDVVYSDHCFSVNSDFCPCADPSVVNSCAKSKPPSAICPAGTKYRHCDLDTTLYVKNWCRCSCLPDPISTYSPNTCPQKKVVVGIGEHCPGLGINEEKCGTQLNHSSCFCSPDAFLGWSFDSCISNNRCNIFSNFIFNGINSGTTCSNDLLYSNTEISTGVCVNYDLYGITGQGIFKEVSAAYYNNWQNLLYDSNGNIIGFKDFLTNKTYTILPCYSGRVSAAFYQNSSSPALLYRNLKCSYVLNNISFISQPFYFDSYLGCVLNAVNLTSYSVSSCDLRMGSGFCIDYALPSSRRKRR

[3] = target: T3, HCoV-OC43 Spike Protein (HCoV-OC43, UniProt P36334 14-1297)
T3 construct: also called OC43-HIS
T3 sequence: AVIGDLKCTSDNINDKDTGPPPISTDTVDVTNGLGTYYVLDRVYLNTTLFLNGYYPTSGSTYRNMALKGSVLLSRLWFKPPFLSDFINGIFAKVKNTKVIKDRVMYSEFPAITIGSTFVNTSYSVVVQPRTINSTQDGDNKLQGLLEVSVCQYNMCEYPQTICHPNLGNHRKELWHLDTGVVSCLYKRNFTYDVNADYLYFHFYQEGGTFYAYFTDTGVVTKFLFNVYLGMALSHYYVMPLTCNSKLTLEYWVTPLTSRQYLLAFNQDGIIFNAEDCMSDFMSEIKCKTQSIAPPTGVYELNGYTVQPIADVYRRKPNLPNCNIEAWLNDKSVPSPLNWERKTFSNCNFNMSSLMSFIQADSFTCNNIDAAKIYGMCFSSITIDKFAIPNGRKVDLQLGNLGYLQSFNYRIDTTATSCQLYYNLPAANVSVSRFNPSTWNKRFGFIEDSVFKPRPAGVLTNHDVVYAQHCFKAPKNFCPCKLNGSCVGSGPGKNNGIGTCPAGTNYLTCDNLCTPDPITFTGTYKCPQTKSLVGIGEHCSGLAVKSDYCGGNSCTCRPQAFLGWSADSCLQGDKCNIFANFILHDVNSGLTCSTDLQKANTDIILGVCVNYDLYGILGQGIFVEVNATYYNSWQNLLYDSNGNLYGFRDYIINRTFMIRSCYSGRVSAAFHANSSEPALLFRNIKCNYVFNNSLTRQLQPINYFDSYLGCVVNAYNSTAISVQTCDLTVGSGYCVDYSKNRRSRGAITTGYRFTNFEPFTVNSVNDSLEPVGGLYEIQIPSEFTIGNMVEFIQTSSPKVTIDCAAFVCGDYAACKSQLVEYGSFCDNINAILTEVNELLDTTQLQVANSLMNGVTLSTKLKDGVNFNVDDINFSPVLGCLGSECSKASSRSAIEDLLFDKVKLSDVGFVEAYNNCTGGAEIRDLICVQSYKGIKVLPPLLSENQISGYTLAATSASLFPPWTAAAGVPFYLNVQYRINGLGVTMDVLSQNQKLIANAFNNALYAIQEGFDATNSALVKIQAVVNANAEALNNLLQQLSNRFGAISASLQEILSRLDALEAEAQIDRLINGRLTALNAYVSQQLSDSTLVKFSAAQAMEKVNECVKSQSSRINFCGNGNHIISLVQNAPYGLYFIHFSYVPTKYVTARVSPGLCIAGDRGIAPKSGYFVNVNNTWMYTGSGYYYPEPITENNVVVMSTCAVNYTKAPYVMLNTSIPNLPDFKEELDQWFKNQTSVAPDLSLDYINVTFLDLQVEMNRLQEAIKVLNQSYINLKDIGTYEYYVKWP

[4] = target: T4, HCoV-NL63 Spike/S1 Protein (HCoV-NL63, UniProt Q6Q1S2 19-717)
T4 construct: domain: Spike/S1; also called NL63-HIS
T4 sequence: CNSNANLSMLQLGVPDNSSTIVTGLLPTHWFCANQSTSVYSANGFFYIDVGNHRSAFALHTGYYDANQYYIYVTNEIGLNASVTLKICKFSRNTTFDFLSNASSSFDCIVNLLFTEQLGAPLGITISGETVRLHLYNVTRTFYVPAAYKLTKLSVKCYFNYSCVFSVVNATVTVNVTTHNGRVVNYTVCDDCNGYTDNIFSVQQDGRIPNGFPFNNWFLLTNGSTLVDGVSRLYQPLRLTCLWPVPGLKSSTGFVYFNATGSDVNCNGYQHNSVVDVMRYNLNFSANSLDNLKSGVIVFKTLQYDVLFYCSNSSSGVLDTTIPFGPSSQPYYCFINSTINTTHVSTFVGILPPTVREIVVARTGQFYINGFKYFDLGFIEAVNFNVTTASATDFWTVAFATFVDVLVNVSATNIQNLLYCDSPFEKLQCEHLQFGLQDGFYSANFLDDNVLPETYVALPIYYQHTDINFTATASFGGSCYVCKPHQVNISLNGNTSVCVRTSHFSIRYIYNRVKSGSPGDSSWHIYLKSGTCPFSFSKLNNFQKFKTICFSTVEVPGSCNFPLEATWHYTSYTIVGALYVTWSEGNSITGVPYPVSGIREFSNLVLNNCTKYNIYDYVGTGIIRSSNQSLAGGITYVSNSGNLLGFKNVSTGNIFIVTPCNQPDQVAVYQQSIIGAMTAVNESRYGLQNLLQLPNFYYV

Measured: binding result

B1: phage clone #85 (scFv)
scFv: QAVLTQPPSASGTPGQMVTISCSGSNSNIGSNPVNWYQQLPGTAPKLLIYGNDERPSGVPDRFSGSKSGTSASLAISGLQSEDEADYYCAAWDDSLDGHVIFGGGTKLTVLGSRGGGGSGGGGSGGGGSLEMA[about 100 residues not spelt out]GYSDYWGQGTLVTVSSTSGQAGQ
no binding: [1] | [2] | [3] | [4]
